# Experimental data as given in paper PMC12040169 (PLOS Biology, 2025).
# The list shows a part of the results.
# Tested on: T1, C. trachomatis L2/434/Bu expressing GFP (CTL2-GFP)
# T1 construct: L2/434/Bu GFP intracellular growth in HeLa cells
# Design: species or system HeLa; C. trachomatis total inclusion area by high-content imaging, normalised to DMSO
# Details: total inclusion area; 28.5 h, 10 µM; inhibitor
# Summary of the method: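 After bulk GFP and resorufin fluorescence reads, cells were fixed, stained with Hoechst and imaged by high-content microscopy. Inclusion area and number (GFP) stood in for chlamydial growth, nuclei count (Hoechst) for host cell viability. MICs were derived as for the bulk readout.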
row,SMILES,% of control remaining
1,CN(C)CCNC(=O)Cn1c(-c2ccc(F)cc2)cc2cccnc21 [CBK284820],64.2204
2,Clc1cccc(CNc2cncc(-c3cccs3)n2)c1 [CBK065609],104.882
3,CC(C)N1CC[C@H]2CN(C(=O)CCC(=O)O)CC[C@H]2CC1=O [CBK288789],96.1639
4,O=C(c1ccccc1-n1cccc1)N1CCCC1 [CBK149608],87.5798
5,Cc1c(C(=O)O)sc(S(=O)(=O)N2CCN(C(=O)Cc3ccccc3)CC2)c1C(=O)O [CBK297148],93.3909
6,O=C1CN(C(=O)NCC2CCCCC2)CCN1 [CBK155854],97.4861
7,CCOc1cc(F)ccc1NC(=O)CC1CCN(c2nc(C)cc(C)n2)CC1 [CBK285958],87.5534
8,CN1CCN(NC(=O)c2cccc(COc3ccccc3Cl)c2)CC1 [CBK265765],65.5794
9,NC(=S)Nn1c(CCC(=O)O)ccc1-c1ccccc1 [CBK265942],105.243
10,COc1ccccc1CNC(=O)c1cnc2scc(C)n2c1=O [CBK287293],80.2825
11,Cc1ccc(CS(=O)(=O)N2CCC3(CC2)CNC(=O)C3)cc1 [CBK283344],79.6694
12,Cc1ccc(OC(C)c2nc(-c3nonc3N)no2)cc1C (stereo not drawn) [CBK025698],88.5706
13,Nc1ccc(CCNC(=O)c2cnc(-c3cccc(C(F)(F)F)c3)c(-c3ccncc3)c2)cc1 [CBK037580],162.617
14,Fc1ccc(CSc2nc3ccccc3nc2C(F)(F)F)cc1 [CBK107199],104.263
15,CCn1ncc(CN2CCN(C(=S)Nc3ccccc3C(F)(F)F)CC2)c1C [CBK266968],122.8
16,COC(=O)c1cccc(Oc2nc(OC)cc(OC)n2)c1 [CBK092219],40.2118
17,Cn1c(SCC(=O)Nc2ccc(Br)cc2C(F)(F)F)nnc1-c1ccncc1 [CBK265905],62.6114
18,O=C(Cc1cccc(F)c1)N1CCC(O)(c2cccnc2F)CC1 [CBK284362],89.0114
19,COc1cc(/C=N/NC(=O)c2ccncc2)ccc1OC(=O)c1cccs1 [CBK262278],47.933
20,COc1cc(-c2nc(N)cc3ccccc23)cc(OC)c1OC [CBK085726],57.423
21,O=C(Nc1ccc(NC(=O)c2cc(O)nc3ccccc23)cc1)c1ccccc1 [CBK269722],101.886

row,SMILES,% of control remaining
1,O=C(N/N=C\c1ccc([N+](=O)[O-])o1)c1nc(-c2ccccc2)cc(-c2ccccc2)n1 [CBK261958],0.264
2,CC1(C)CC(=O)c2sc(NC(=O)c3ccc(OC(F)(F)F)cc3)nc2C1 [CBK144102],101.816
3,Nc1cc(NC(=O)c2cccc(C(=O)Nc3ccc(Cl)c(N)c3)c2)ccc1Cl [CBK261379],90.2887
4,CC1CC(NC(=S)NCc2csc3ccccc23)CC(C)(C)C1 (stereo not drawn) [CBK013824],58.0263
5,COc1ccc(Cl)cc1/C=C/C(=O)NCc1ccc(C(=O)O)cc1 [CBK286908],110.508
6,NC(=O)c1cc(C(=O)c2ccccc2F)c[nH]1 [CBK017284],36.5763
7,CCCCc1c(C)nc2ccc(OC)cc2c1SCCC(=O)O [CBK263888],110.753
8,Cn1c(CNC(=O)c2ncoc2-c2cccs2)nc2ccccc21 [CBK283985],91.5945
9,Cc1nc(C)c(C(=O)NCc2cccnc2N(C)C2CCCCC2)s1 [CBK306885],115.422
10,NC(=S)NNC(=O)Nc1ccccc1 [CBK261595],90.941
11,CS(=O)(=O)c1ccc(-c2c[nH]c([C@@H]3COCCN3Cc3ccc(C(=O)O)cc3)n2)cc1 [CBK289306],130.474
12,CS(=O)(=O)NCCCNc1ccc(C(F)(F)F)cc1[N+](=O)[O-] [CBK263741],67.7761
13,COc1ccc(NC(=O)c2nn(-c3nc4ccccc4o3)c3ccccc23)cc1 [CBK048492],88.1302
14,CSCCCNC(=O)N1CCCC(CO)C1 (stereo not drawn) [CBK156031],90.1683
15,CCOc1ccccc1-n1c(CCC(=O)O)ccc1-c1cccs1 [CBK264794],114.757
16,COc1cc(C(=O)N2CCC3(CC2)CC(=O)c2ccc(C)cc2O3)ccc1O [CBK166045],102.432
17,CCN(CC)C(=O)C1CCCN(C(=O)NCCCSC)C1 (stereo not drawn) [CBK156118],69.8199
18,CCNc1ncnc2c1oc1ccccc12 [CBK263298],60.0146
19,CCOC(=O)C1CCN(Cn2nc(-c3cccs3)oc2=S)CC1 [CBK295165],115.215
20,CCOC(=O)CN1N=C(C)C(Cc2c(Cl)cccc2Cl)(OC)C1=O (stereo not drawn) [CBK112646],76.8723
21,COc1ccc([C@H]2CN(C(=O)c3ccccc3)[C@@H]3CCN(Cc4ccccc4C)C[C@H]23)cc1 [CBK285583],72.9734

row,SMILES,% of control remaining
1,Nc1cccc(-c2cn(C[C@H]3CC4CCN3C[C@@H]4C(=O)NC3CCCCC3)nn2)c1 (stereo partly drawn) [CBK289083],107.264
2,CCCC(=O)Nc1ccc(OCc2nnc(C)o2)c(C(C)=O)c1 [CBK305943],80.4086
3,CS(=O)(=O)c1ccc(CN2C(=O)CC3(CCN(C(=O)Cc4cccs4)CC3)C2=O)cc1 [CBK155013],104.513
4,O=C(CN(c1cccc(Cl)c1)S(=O)(=O)c1ccccc1)NN=C1CCCCC1 [CBK262470],91.7474
5,Cc1cc(C)n2nc(C(=O)NCc3ccccn3)cc2n1 [CBK269015],86.4238
6,Nc1ncc([C@H]2C[C@@H](O)[C@@H](CO)O2)c(=O)[nH]1 [CBK201246],106.382
7,COc1ccc(C(CCN)c2ccccc2OC)cc1 (stereo not drawn) [CBK266125],53.5077
8,CCCNCCc1ccc(NC(=O)NCCc2ccccc2)cc1 [CBK173873T],87.3504
9,CN1C2CCC1CC(OC(=O)CN1CCCCC1)C2 (stereo not drawn) [CBK278166C],84.1134
10,Cc1cc(/C=C/C2=CCN(C)CC2)c(C)n1C1CC1 [CBK283858],105.909
11,COc1ccc(CC(=O)Nc2ccc(S(N)(=O)=O)cc2)cc1OC [CBK263429],106.172
12,Cc1nccn1CC1(O)CCN(Cc2cn(C)c3ccccc23)CC1 [CBK285017],98.3694
13,COc1ccc(-c2nc(NC(=O)c3ccncc3)cnc2-c2ccc(F)c(Cl)c2)cc1 [CBK036663],80.4339
14,COc1ccc(-c2cnc(N)c(NCC(C)(C)CO)n2)c(OC)c1OC [CBK063542],116.861
15,c1cncc(COc2nccnc2N2CCN(CCN3CCOCC3)CC2)c1 [CBK083141],91.6704
16,CCOc1ncccc1C(=O)NCc1ccc(NC(N)=O)cc1 [CBK279382],74.6949
17,O=C(O)c1ccc(COc2ccc(/C=C3\SC(=S)N(Cc4cccnc4)C3=O)cc2)cc1 [CBK264637],119.27
18,O=C(O)Cc1csc(NC(=O)c2ccc(N3CCCCC3)c([N+](=O)[O-])c2)n1 [CBK296081],106.222
19,Cn1ccnc1CN1CCN(Cc2nccn2C)CC1 [CBK266206C],80.7393
20,Cc1ncc(CO)c(/C=N/N=C/c2ccc(O)c(O)c2)c1O [CBK265075],94.5873
21,O=C(COc1ccc2ccccc2c1Br)Nc1ccc(S(=O)(=O)N2CCCC2)cc1 [CBK264135],122.086

row,SMILES,% of control remaining
1,COc1cc(Cn2c(-c3ccc(O)c(OC)c3)nc3ccccc32)ccc1O [CBK291138],70.2104
2,COc1ccc(CN2CCCn3c4c(c5cc(C)ccc53)CCCC42)cc1OCc1ccccc1 (stereo not drawn) [CBK262879],68.135
3,COc1ccc(S(=O)(=O)N(CC(=O)Nc2ccc(F)cc2)c2ccccc2)cc1 [CBK264141],118.851
4,CC(=O)NCCCCCC(=O)Nc1ccc(C(=O)O)cc1 [CBK287241],122.21
5,O=C(c1cnccn1)N1CCN(c2nc3c(F)cccc3s2)CC1 [CBK287722],122.982
6,O=C(CN1CCN(c2ccc(C(F)(F)F)cn2)CC1)c1ccc2c(c1)OCCO2 [CBK074700],1.9676
7,COc1ccccc1OCCO [CBK000949],101.228
8,Cc1nc(=O)c(-c2ccccc2)c(C)n1CCc1c[nH]cn1 [CBK287900],96.6043
9,O=c1cc(NCCCN2CCN(Cc3ccccc3)CC2)c2ccccc2o1 [CBK011079],48.8799
10,COc1cc(CNC(C)(C)CO)ccc1OCc1ccc(Cl)cc1 [CBK266433C],109.196
11,O=C1CC2(CCN(C(=O)C3CCCC3)CC2)Oc2ccccc21 [CBK283485],93.1159
12,COc1cc(-c2nccnc2N2CCN(c3ccncc3)CC2)cc(OC)c1OC [CBK036847],117.14
13,COC(=O)c1c(NC(=O)C(=O)NCc2ccco2)sc2c1CCCC2 [CBK269269],110.141
14,COCCSCc1cn2cc(Br)ccc2n1 [CBK306361],77.0014
15,Cc1cc(C)cc(S(=O)(=O)c2ccc3ccnc(N4CCCNCC4)c3c2)c1 [CBK036413C],76.4283
16,O=C1/C(=C/c2ccc3c(c2)OCO3)SC(=S)N1CCCC(=O)N1CCCc2ccccc21 [CBK264676],118.393
17,NC(=O)CS(=O)(=O)c1ccc(Cl)cc1 [CBK026373],30.794
18,O=C(Cn1cnc2sc(-c3ccccc3)cc2c1=O)c1ccc2c(c1)OCO2 [CBK297102],95.2903
